# Measured values from the supplement of paper PMC3334620.
# In all, about 33,000 sequences were measured (“E-score (-0.5 to 0.5)”: median about -0.012, highest 2% from about 0.29 on). This is one part of the list.
# Target: T1, Ybr033w (UniProt P38073)
# T1 sequence: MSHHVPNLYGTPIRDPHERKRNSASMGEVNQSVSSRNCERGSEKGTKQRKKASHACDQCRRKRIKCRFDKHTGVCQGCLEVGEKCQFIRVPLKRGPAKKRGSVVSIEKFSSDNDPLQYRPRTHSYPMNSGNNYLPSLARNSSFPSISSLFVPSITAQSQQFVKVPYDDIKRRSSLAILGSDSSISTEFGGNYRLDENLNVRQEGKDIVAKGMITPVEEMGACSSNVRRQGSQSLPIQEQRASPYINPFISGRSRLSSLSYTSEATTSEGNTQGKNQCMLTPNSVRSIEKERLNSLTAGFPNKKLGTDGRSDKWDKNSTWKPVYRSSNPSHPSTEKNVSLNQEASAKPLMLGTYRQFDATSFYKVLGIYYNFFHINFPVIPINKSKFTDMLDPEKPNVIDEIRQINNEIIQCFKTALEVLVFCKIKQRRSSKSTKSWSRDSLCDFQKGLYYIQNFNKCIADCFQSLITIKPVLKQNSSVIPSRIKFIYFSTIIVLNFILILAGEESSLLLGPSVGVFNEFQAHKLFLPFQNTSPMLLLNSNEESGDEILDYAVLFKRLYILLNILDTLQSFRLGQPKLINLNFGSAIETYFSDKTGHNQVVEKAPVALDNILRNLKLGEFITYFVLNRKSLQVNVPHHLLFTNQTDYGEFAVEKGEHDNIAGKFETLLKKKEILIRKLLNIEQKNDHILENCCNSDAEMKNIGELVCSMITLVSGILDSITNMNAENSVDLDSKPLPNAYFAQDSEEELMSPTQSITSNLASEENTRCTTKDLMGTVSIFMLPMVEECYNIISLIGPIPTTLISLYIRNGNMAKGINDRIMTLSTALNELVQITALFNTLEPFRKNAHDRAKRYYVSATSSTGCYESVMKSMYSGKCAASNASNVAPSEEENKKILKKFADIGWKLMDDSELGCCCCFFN
# Test: PBM E-score (8-mer binding enrichment) (E-score (-0.5 to 0.5)); higher = stronger / more preferred TF binding; most listed sequences are background and not binding sites
# Conditions: protein concentration: 200 nM; construct: GST-full length
# Description: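 Universal 'all 10-mer' protein binding microarrays (Agilent AMADID 015681) probed with GST-tagged S. cerevisiae TFs (full-length or DBD) made by in vitro transcription/translation (PURExpress), about 100-200 nM. Bound TF was detected with fluorescent anti-GST. Each ungapped 8-mer (which stands for itself and its reverse complement) is scored by the PBM enrichment score (E-score), a modified Wilcoxon-Mann-Whitney statistic from -0.5 to +0.5, computed with the Universal PBM Analysis Suite. Scale: above 0.35 generally sequence-specific binding.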
row,Sequence,PBM E-score
1,GGAGGCAC,-0.224
2,CACCTGTA,-0.0102
3,ACTTACCG,0.137
4,ATACAAAG,0.298
5,ACACAACG,0.0896
6,ATCGGTGC,-0.149
7,AATCATTC,0.147
8,ACTAGACC,-0.0433
9,AACTCGCC,-0.00919
10,CTGCATTC,0.13
11,AAGTCGTC,-0.099
12,CAACACAC,-0.0133
13,GACAGAGC,-0.0625
14,AGAGGGTC,-0.246
15,AGGGAAAA,0.296
16,AAAAAGGG,-0.0938
17,GCTACCCA,-0.222
18,AACTGGGA,0.00134
19,AGTGTAGA,0.0489
20,TACCCCTA,-0.107
21,GGTCGGAC,-0.19
22,CGCAAGCG,-0.0738
23,AGCCGTTC,-0.222
24,ATATCAAA,0.241
25,TAGATCTA,0.19

row,Sequence,PBM E-score
1,CCTCAGGA,-0.0719
2,ATCTAGAA,0.214
3,CCTTCTGA,-0.0544
4,ACTCTTTC,-0.0908
5,ACTGGGTG,-0.111
6,GCTCGCAA,0.0873
7,AAAACCCA,0.162
8,CGCAGGGA,-0.202
9,CAGGCCTG,-0.162
10,ACTCGATG,0.166
11,ATAAGCCC,-0.102
12,GGATACGA,-0.0493
13,CTTCGTAA,0.0295
14,CCTAATAA,-0.0059
15,CATCTAGG,-0.154
16,CCCCAAAA,-0.0727
17,ATATACGG,-0.0113
18,ATGATAAA,0.238
19,ACTGCAGG,-0.127
20,GGGTTCCA,-0.178
21,CTTCAAGC,-0.121
22,GTGCTATA,0.111
23,GAGCCCTC,-0.263
24,CAGAGTTA,0.029
25,CCACCCGA,-0.0408

row,Sequence,PBM E-score
1,ACGATTGA,0.0167
2,CGACCGTA,-0.299
3,GGTATACA,0.00479
4,CCGGCCCG,-0.296
5,ATAGGAAC,0.149
6,ATACCTTG,0.0969
7,AAACAGAG,0.065
8,AGGCATAT,-0.0364
9,CATTTGCG,0.0935
10,ATCCCTCA,-0.0498
11,AATACTCT,0.298
12,CTAGCCAA,0.217
13,AGTGCGAA,-0.0815
14,CGTACCCA,-0.126
15,AGAATCTC,-0.0698
16,TACGTTAA,0.0894
17,GTTGGAAA,0.0196
18,ATTACGGC,0.0786
19,GCTCATTA,0.104
20,ATAATTTA,0.338
21,AGAAGACT,-0.125
22,ACGTCCAG,-0.138
23,GCCGGCAA,-0.0249
24,ACCTAGGA,0.0448
25,CTATTGTA,0.249

row,Sequence,PBM E-score
1,AAAGGGAG,-0.364
2,CGCTTGTA,-0.0741
3,GAGTCACC,-0.213
4,AACTTACT,-0.0103
5,GGAATGCC,0.0217
6,ACGCCAGG,-0.207
7,CAGCTAAC,-0.157
8,CCGATGTC,-0.0513
9,TCATCTCA,0.105
10,ATATCTTA,0.281
11,ACACTGGG,-0.161
12,AATAGGTA,0.193
13,AAGTTCTA,0.198
14,CGACCTTA,-0.0779
15,CGGTGGCA,-0.352
16,TTATTGAA,0.114
17,AAAACCAT,0.18
18,AGATGTGC,0.0868
19,AGCACCAG,-0.0513
20,TAACGAGA,0.0739
21,GCACCACA,-0.162
22,CCGCCTCC,-0.343
23,CCCATGGA,-0.0602
24,CATTGAAA,0.29
25,ATTCATGG,-0.005

row,Sequence,PBM E-score
1,AGCTGTAC,-0.197
2,GCCGCTAA,-0.00387
3,CGCCAAGA,-0.288
4,ATACATGA,0.208
5,CAATTCTA,0.114
6,ACCTGCAA,-0.0757
7,GATCTGCA,-0.215
8,TAATTTAA,0.343
9,AGAACCAT,0.148
10,CATAGTCC,-0.0337
11,TCTTCTAA,0.17
12,ACGCAAGC,0.0685
13,ATGATCAC,0.071
14,AAACCTAC,0.141
15,ACCCGCAG,0.076
16,CACCGTGA,-0.183
17,ACGCCGCT,-0.167
18,GGTCATTA,-0.0229
19,AACATATT,0.285
20,AAGCCGCC,-0.223
21,AGAGTACC,0.062
22,ACTAAGGG,-0.121
23,CTTCTCTA,-0.0199
24,AATACCTC,0.132
25,AGCAGTTA,0.0896

row,Sequence,PBM E-score
1,GGATGAAA,0.147
2,CTTCTAGC,-0.255
3,CATGGAAC,-0.126
4,CTCAAGAA,0.129
5,CCACTGCC,-0.0837
6,AACACCAT,0.0922
7,ACAAAAAT,0.308
8,ATCTTAGC,-0.102
9,AGAAGTGA,0.0863
10,CGGCGTAC,-0.182
11,GCATTAAA,0.147
12,AACGCAAA,0.0338
13,ATAACGCG,0.022
14,CCGAAGGC,-0.11
15,ACTACTCG,0.154
16,AGATGGCC,-0.237
17,GATAGCGC,-0.0861
18,CCGATGGC,-0.16
19,CACTATCC,-0.0441
20,AAAAAAGC,0.171
21,GATCGGCA,-0.136
22,TGCTAAAA,0.0551
23,CAATTCTG,0.00143
24,CGCGACCC,-0.139
25,TCGACAGA,-0.00682

row,Sequence,PBM E-score
1,AATGGTCA,0.205
2,GCTGAATA,0.182
3,TCAGTTCA,0.0585
4,ATTGTTTG,0.118
5,ATGGGCAA,0.00404
6,TGGGCACA,-0.0838
7,ACTTGCAA,0.148
8,AAGGTAAC,-0.0278
9,AACCCTGT,-0.0529
10,GTGTGAAC,0.123
11,GATTGCTA,0.0334
12,AGCCCTTG,-0.0775
13,TAGATCGA,0.037
14,GGGAGAAC,-0.243
15,ATTTAGGG,-0.0312
16,AGGATACT,-0.0125
17,ACGCATTA,0.0633
18,ACCAGCAT,0.0255
19,AGAATAGA,0.184
20,ACGGAAGT,0.0483
21,CGGATGTC,-0.0666
22,ACATCAGG,0.038
23,CCGTCACC,-0.287
24,ATGCCATA,-0.00061
25,AACGTTCT,0.124

row,Sequence,PBM E-score
1,AGAGGGCT,-0.064
2,CCTAGAGA,0.0287
3,CCTACGAG,-0.105
4,CTAGTGTA,0.222
5,AAAAACCC,0.164
6,TCGGCGCA,-0.0741
7,GCAGCTGC,-0.00486
8,GATGCTCC,-0.0931
9,CTATCAAA,0.023
10,TCAAGCCA,-0.167
11,CCCCGAGC,-0.238
12,CTCCGGGC,-0.258
13,AGATGCTG,-0.139
14,GAAAGGTA,0.131
15,GCGTGCCC,-0.253
16,AACATAAC,0.281
17,CCGATTAG,-0.131
18,CCATTTAG,-0.056
19,ATCCTGGG,-0.084
20,TCTTGTAA,0.14
21,CACCTGGA,-0.0177
22,CTCGGTTA,-0.088
23,ACGGAAGG,-0.126
24,CGAAAGTA,-0.0412
25,CTTACTTC,0.133

row,Sequence,PBM E-score
1,CTGTCCAA,-0.0179
2,GGTCTGAC,-0.179
3,CCACCCTA,0.0231
4,GGGCGCCA,-0.146
5,GACTCGGA,-0.0488
6,CCATTTCG,-0.112
7,ACTGGTAT,-0.0881
8,ACTCGACA,0.0137
9,CTTTATAA,0.0351
10,ACAATTGC,0.0115
11,CGGCGTAG,-0.155
12,ACATTTAC,0.117
13,CTACGATC,-0.0637
14,ACCGGGTC,-0.0994
15,GGGCATAC,-0.1
16,CGTTTTTA,0.186
17,CTAAAGGC,-0.0862
18,ATTCAGAC,0.0909
19,CCTAGTGA,-0.156
